# Whole data set: some 13,000 compounds, median “IFI” near 4, cut for the highest 2% near 17. Some of the results follow.
# Assay: GSK_TCMDC: Inhibition Frequency Index (IFI). The number of non-kinase HTS assays where a compound showed > 50 % inhibition, expressed as a percentage of the number of such assays in which the compound was tested (-0 is zero)
# Type: functional
row,Compound,IFI [%]
1,CCC(CC)N1C(=O)C(c2ccccc2)(c2ccccc2)N=C1N,0.95
2,O=C(N[C@H]1CCN(CCc2ccc(O[C@H]3CCNC3)c(F)c2)C1)c1ccc(Cl)c(Cl)c1,6
3,Cc1cc(=O)c(-c2ccc(OCc3ccc(OC(F)(F)F)cc3)cc2)c(C)[nH]1,3.64
4,COc1cc(/C=C/C(=O)NCC(CCNc2cc(=O)c3ccccc3[nH]2)NCc2cc(Br)cc(Br)c2)cc(OC)c1 (stereo not given),7.91
5,COc1ccc2c(c1)C(C)(CCCN(C)C)C(=O)N2C (stereo not given),0
6,COc1ccc(C(=O)CCC(=O)N(CCC2CCCN2C)Cc2ccc(-c3ccc(CNCCc4ccc(S(C)(=O)=O)cc4)cn3)cc2)cc1F (stereo not given),3.55
7,O=C(NCCN1CCC(c2ncc(-c3ccccc3)o2)CC1)c1ccc(NC(=O)c2ccc(Cl)cc2)cc1,8.55
8,Cc1nn(C)cc1C(C)Nc1nncc(-c2ccc(C(F)(F)F)cc2)n1 (stereo not given),2.38
9,O=C(/C=C/c1ccc(I)cc1)NCCCCCN1CCC(c2c[nH]c3ccc(O)cc23)CC1,2.88
10,Cc1ccc(Nc2nc(C)cc(N3CCN(CCc4ccccc4)CC3)n2)cc1,11.9
11,CC(C)c1ccc(NC(=O)c2ccc(C(=O)NC3CCN(CC4CCCCC4)CC3)cc2)cc1,4.35
12,Oc1ccc(-c2cc(-c3ccc(O)cc3)nc(-c3ccccc3)n2)cc1,4.17
13,c1cc(C2=NC3CCCCC3N2)ccc1OCCCOc1ccc(C2=NC3CCCCC3N2)cc1 (stereo not given),2.21
14,Cc1cc(NC2CCN(CC3CCCCC3)C2)nc(Nc2ccc(Br)cc2)n1 (stereo not given),5.13
15,CCCCCCCNC(=O)NCC1CCCN(CCCCCNC(=O)/C=C/c2ccc(Cl)c(Cl)c2)C1 (stereo not given),10.5
16,Cc1ccccc1C1CCN(C2CCC(NC(=O)c3cc4cc(C(C)C)ccc4[nH]3)CC2)CC1 (stereo not given),19.6
17,CNS(=O)(=O)c1ccc2c(c1)nc(C1CCN(CC3CCC(NC(=O)/C=C/c4ccc(Cl)c(Cl)c4)CC3)CC1)n2C (stereo not given),5.84
18,CN(C)Cc1ccc(-c2ccc3c(Nc4ccc(Oc5ccccn5)cc4)ccnc3c2)o1,7.19
19,COc1cc(N)cc2sc(N)nc12,4.93
20,CCN(CC)CCN(Cc1ccc(-c2ccc(C(F)(F)F)cc2)cc1)C(=O)Cn1c(CCc2cc(F)cc(F)c2F)nc(=O)c2ccccc21,9.79
21,COc1ccc2c(c1C1CCN(CCCCNC(=O)c3ccc(-c4ccc(Cl)cn4)cc3)CC1)CCCC2,4.48
22,CC[C@H](C)CNC(=O)c1cccc(-c2cccc(CN3CCC(N4CCCC4)CC3)c2)n1,10.4
23,COCCOc1cc(C)c(C2CCN(CCCCNC(=O)c3ccc(NC(=O)c4ccc(Cl)cc4)cc3)CC2)cc1C,1.52

row,Compound,IFI [%]
1,c1cc(-c2ccc(CN3CCCCC3)cc2)cc(-c2nc3ccccc3[nH]2)c1,1.41
2,c1ccc2[nH]c(-c3ccc(-c4ccc(CN5CCN(CCN6CCOCC6)CC5)cc4)s3)nc2c1,4.23
3,O=c1cc(NCCC(CNCc2ccc(Br)o2)NCc2cc(Br)cc(Br)c2)[nH]c2ccccc12 (stereo not given),5.88
4,COc1ccc2c(c1CNCCCCCCNCc1c(OC)ccc3c1CCCC3)CCCC2,11.9
5,Cc1cccc(CNc2nc(C)cc(NCCC(=O)Nc3ccccc3)n2)c1,7.5
6,CN(C)CCOc1cc(NC(=O)Nc2ccc(-c3ccncc3)c(Cl)c2)ccc1I,5.26
7,CC(C(=O)Nc1ccc(Br)cc1Br)N1CCN(C(=O)c2ccco2)CC1 (stereo not given),2
8,COc1ccc2c(=O)c(I)c(C)[nH]c2c1,0.74
9,c1cc(-c2ccc(CNCCCN3CCOCC3)cc2)cc(-c2nc3ccccc3[nH]2)c1,2.86
10,Cc1ccc(C(=O)Nc2ccc(C)c(OC3CCN(Cc4ccco4)C3)c2)cc1 (stereo not given),-0
11,CN1C(C)(C)CC(NC(=O)c2ccc(-c3cc4cc(Cl)c(Cl)cc4[nH]3)o2)CC1(C)C,0.72
12,CCCCC1=CC2C(=O)C(C(=O)OC)=CN=C2C=C1OCc1ccccc1 (stereo not given),-0
13,CN(C)CC1CCCN1Cc1ccccc1-c1cnn(C)c(=O)c1Oc1ccccc1F (stereo not given),-0
14,CCCCCC(C)C(C)c1cc(O)c2c(c1)OC(C)(C)C=C2c1cc[n+]([O-])cc1 (stereo not given),0
15,CC12CCC(CN(CC(O)Cn3c4ccccc4c4cc(I)ccc43)C1)C2(C)C (stereo not given),0
16,Nc1nc2c(ncn2OC[C@H]2COP(=O)(O)CO2)c(=O)[nH]1,0
17,CNCCNCc1ccc(-c2cccc(-c3nc4cc(F)ccc4[nH]3)c2)cc1,8.91
18,CN(C)S(=O)(=O)n1ccc2c3c(N)nc(N)nc3ccc21,4
19,Cc1cccc2nc(-c3ccc(-c4ccc(CN5CCN(CCO)CC5)cc4)s3)[nH]c12,7.84
20,c1ccc(CCNCc2ccc(-c3ccc(CNC4CCN(Cc5ccccc5)CC4)cc3)nc2)cc1,3.7
21,O=C(Nc1ccc([N+](=O)[O-])cc1)c1nn(-c2ccccc2)cc1/N=C/c1cccc(O)c1,2.22
22,Cc1noc(-c2ccccc2)c1NC(=O)NC1CCN(CCCCCNC(=O)/C=C/c2ccc(Cl)c(Cl)c2)CC1,2.38
